According to PubChem BioAssay AID485344 (National Center for Advancing Translational Sciences (NCATS), 2010):
About 6,900 (2%) of roughly 340,000 compounds were called active. No stated cut-off is given here; in the data, active means inhibition above about 30%; inactive means below that, where a call was filed. The list shows a part of the results, in another mix than the full data. Entries without a call were filed so in the source.

target: D(2) dopamine receptor (Homo sapiens) (UniProt P14416); assay: HTS Assay for Allosteric Antagonists of the Human D2 Dopamine Receptor: Primary Screen for Antagonists; settings: HEK293 TREx D2 cells, calcium flux, dopamine EC80; at 10 µM; stronger effect = higher value; further: 0% is about no effect
How it was run: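 Calcium flux kinetic readout in an inducible HEK293 TREx D2 line plated overnight at 30 C. After 180 s compound exposure, an EC80 dopamine challenge follows with another 180 s kinetic read to detect antagonism.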

UniProt P14416, sequence (P14416 whole entry, looked up): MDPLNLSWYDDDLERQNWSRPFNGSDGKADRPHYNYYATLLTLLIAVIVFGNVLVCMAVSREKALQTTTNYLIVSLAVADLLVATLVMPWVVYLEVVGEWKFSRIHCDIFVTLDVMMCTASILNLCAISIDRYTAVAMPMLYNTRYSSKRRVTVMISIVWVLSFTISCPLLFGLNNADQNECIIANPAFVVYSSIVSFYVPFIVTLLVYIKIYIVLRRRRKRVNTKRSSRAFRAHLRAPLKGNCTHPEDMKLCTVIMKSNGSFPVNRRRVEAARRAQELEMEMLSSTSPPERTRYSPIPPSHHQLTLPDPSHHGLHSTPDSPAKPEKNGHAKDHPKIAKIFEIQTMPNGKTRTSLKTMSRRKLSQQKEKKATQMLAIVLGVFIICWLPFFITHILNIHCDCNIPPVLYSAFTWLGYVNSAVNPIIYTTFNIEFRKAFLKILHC

**Q.** With FC(F)(F)c1cccc(Nc2c3c(nc4ccc(Cl)cc24)CCC3)c1 as the compound, how does the inhibition read?
**A.** -6.78%

**Q.** Which inhibition does the source give for CC(NC(=O)c1ccc2c(c1)sc1nc(-c3ccc(F)cc3)cn12)C12CC3CC(CC(C3)C1)C2 (centres undefined) here?
**A.** 10.3%

**Q.** For COc1cc(OC)c(NC(=O)CCc2c(C)nc3c4c(C)cc(C)nc4nn3c2C)cc1Cl, which inhibition is on record?
**A.** 2.72%

**Q.** For CCCCCN1C(C(=O)c2ccccc2)=C(OC(=O)CC)c2ccccc2S1(=O)=O, which inhibition is on record?
**A.** -1.99%

**Q.** With COc1cc(NC(=O)C2CCN(S(=O)(=O)c3c(C)noc3/C=C/c3ccccc3F)CC2)cc(OC)c1OC as the compound, how does the inhibition read?
**A.** -21.8%

**Q.** Cc1ccc(CCNC(=O)c2ccc(Nc3nc4ccccc4n4nnnc34)cc2)cc1 was tested. Which inhibition did it give?
**A.** -4.01%

**Q.** How did the inhibition turn out when CCOC(=O)c1c(C)oc2nc(C)nc(NCCCN3CCN(c4cc(C)ccc4C)CC3)c12 was run?
**A.** 14.2%

**Q.** For CC(C)c1ccc(Nc2c(-c3ccccn3)nc3ccccn23)cc1, which inhibition is on record?
**A.** 14.4%

**Q.** Which inhibition does the source give for COc1ccc(-c2nc(CSCC(=O)NCc3ccccc3Cl)c(C)o2)cc1OC here?
**A.** -15.8%

**Q.** O=C(NCCc1ccc(Cl)cc1)C1CCN(S(=O)(=O)c2ccc3[nH]ccc3c2)CC1 was tested. Which inhibition did it give?
**A.** -1.73%

**Q.** Which inhibition does the source give for COc1ccc(CCNC(=O)C(=O)NCC(c2cccs2)S(=O)(=O)c2ccc(F)cc2)cc1 (centres undefined) here?
**A.** 5.18%

**Q.** For COc1ccc(-c2noc(CNC(=O)COc3cccc(C)c3C)n2)cc1, which inhibition is on record?
**A.** -10.4%

**Q.** With COc1ccc(N(C(=O)Cn2nnc3ccccc32)C(C(=O)NCc2ccccc2)c2ccc(F)cc2)cc1 (centres undefined) as the compound, how does the inhibition read?
**A.** -4.02%

**Q.** How did the inhibition turn out when Cn1nnc2c(NCc3c(F)cccc3F)ncnc21 was run?
**A.** -8.22%

**Q.** COc1ccc(CCNC(=O)c2cc(=O)c3cc(C)c(C)cc3o2)cc1OC was tested. Which inhibition did it give?
**A.** -14.4%

**Q.** With COc1ccc(N2CCN(Cc3nc4c(c(=O)[nH]c(=O)n4C)n3Cc3ccccc3F)CC2)cc1 as the compound, how does the inhibition read?
**A.** 12.1%

**Q.** How did the inhibition turn out when c1ccc(CN2CCC(Nc3nc(-c4cccnc4)nc4ccccc34)CC2)cc1 was run?
**A.** active: 49.4%

**Q.** For CCc1ccc(C(=O)CC2(O)C(=O)N(CCc3ccccc3)c3ccc(Cl)cc32)cc1 (centres undefined), which inhibition is on record?
**A.** -1.5%

**Q.** Which inhibition does the source give for Cn1c(=O)c2c(nc(SCC(=O)Nc3ccc(F)c(F)c3)n2Cc2ccccc2F)n(C)c1=O here?
**A.** -12.4%

**Q.** For CNC(=O)C1CCC(Cn2c(=O)c3sccc3n(CC(=O)N3CCC(C)CC3)c2=O)CC1 (centres undefined), which inhibition is on record?
**A.** -0.866%

**Q.** For Cc1ccc(-n2ncc(C(=O)NCc3ccco3)c2C2CCN(C(=O)OC(C)(C)C)CC2)cc1, which inhibition is on record?
**A.** -5.68%

**Q.** Cc1ccc2nc(Cl)c3cc(C(=O)N4CCCCC4)sc3c2c1 was tested. Which inhibition did it give?
**A.** -4.08%

**Q.** Which inhibition does the source give for Cn1c(=O)c2c(-c3ccc(Cl)cc3)n(CCc3ccccc3)cc2n(C)c1=O here?
**A.** -21.2%

**Q.** With COC(=O)c1cc(S(=O)(=O)NCC2CCN(Cc3cccc(F)c3)CC2)cn1C as the compound, how does the inhibition read?
**A.** -1.64%

**Q.** How did the inhibition turn out when Cc1cc(C)c(Cn2c(=O)n(CCCC(=O)NCc3ccc4c(c3)OCO4)c(=O)c3sccc32)c(C)c1 was run?
**A.** -15%

**Q.** For Cc1cc(C)c(NC(=O)Cn2c(=O)n(Cc3ccc4c(c3)OCO4)c(=O)c3ccccc32)c(C)c1, which inhibition is on record?
**A.** -4.01%

**Q.** For CCC1=Nc2cc(C(=O)NCc3ccccc3Cl)ccc2Sc2ccc(C)cc21, which inhibition is on record?
**A.** 26.9%

**Q.** COc1ccc(CCNC(=O)c2cc3sc(Cl)cc3n2C)cc1OC was tested. Which inhibition did it give?
**A.** active: 63%

**Q.** Which inhibition does the source give for COC(=O)c1cccc(Nc2c(-c3ccc(OC)cc3)nc3nc[nH]n23)c1 here?
**A.** 18.7%

**Q.** CC(C)NS(=O)(=O)c1ccc(OCC(N)=O)c(Cl)c1 was tested. Which inhibition did it give?
**A.** active: 33.6%

**Q.** For Cc1ccc(C)c(NC(=O)Cn2nnc(C(=O)NCCc3ccccc3)c2N)c1, which inhibition is on record?
**A.** 3.55%

**Q.** Which inhibition does the source give for CCOc1ccc(C(C)=O)cc1CN1C(=O)c2ccccc2S1(=O)=O here?
**A.** active: 34%

**Q.** With CCCc1nc2nc(C)c(NS(=O)(=O)c3ccc(F)cc3)c(=O)n2[nH]1 as the compound, how does the inhibition read?
**A.** 1.34%

**Q.** With Cc1cc(C(=O)N2CCN(c3ccc(F)cc3)CC2)c2c(C)nn(-c3cccc(Cl)c3C)c2n1 as the compound, how does the inhibition read?
**A.** -3.32%

**Q.** Which inhibition does the source give for CCc1ccc(S(=O)(=O)c2cnc3ccc(OC)cc3c2N2CCCC(C)C2)cc1 (centres undefined) here?
**A.** 11.4%

**Q.** Which inhibition does the source give for COc1cc(OC)c2c(C)c(CC(=O)NCCc3ccccc3OC)c(=O)oc2c1 here?
**A.** 7.65%

**Q.** COc1ccc(CNC(=O)Cn2c(=O)nc(-c3ccccc3F)c3cc(Cl)ccc32)cc1OC was tested. Which inhibition did it give?
**A.** 17.1%

**Q.** COc1ccc(/C=N/NC(=O)c2nn(-c3ccc(C)c(C)c3)c(=O)c3ccccc23)cc1 was tested. Which inhibition did it give?
**A.** active: 44.7%

**Q.** How did the inhibition turn out when Cc1ccc(Cl)cc1-n1ncc2c(NC3CCCCC3)ncnc21 was run?
**A.** -21.9%

**Q.** N#Cc1cccc(Nc2ncnc3c2cnn3-c2cccc(Cl)c2)c1 was tested. Which inhibition did it give?
**A.** 1.15%

**Q.** With CCOC(=O)C1CCCN(S(=O)(=O)c2ccc3c(c2)CCN3C(=O)CC)C1 (centres undefined) as the compound, how does the inhibition read?
**A.** 10.8%

**Q.** How did the inhibition turn out when O=C(CSc1nncn2c1cc1occc12)Nc1ccccc1C(F)(F)F was run?
**A.** -0.716%

**Q.** For Cc1cccc2sc(N3CCN(C(=O)CS(=O)(=O)c4ccc(F)cc4)CC3)nc12, which inhibition is on record?
**A.** 12%

**Q.** CCOC(=O)c1c(C)[nH]c(CCC(=O)Nc2c(Cl)cc(OC)cc2OC)c1C was tested. Which inhibition did it give?
**A.** -9.48%

**Q.** Cc1ccc(C(=O)O)cc1-n1c(C)ccc1-c1ccccc1 was tested. Which inhibition did it give?
**A.** -2.56%

**Q.** For COC(=O)c1cc(NC(=O)C2CCCN(S(=O)(=O)c3c(C)n[nH]c3C)C2)cc(C(=O)OC)c1 (centres undefined), which inhibition is on record?
**A.** -12.5%

**Q.** COc1ccc(C)cc1NC(=O)Cn1c(=O)nc(-c2ccccc2F)c2cc(Cl)ccc21 was tested. Which inhibition did it give?
**A.** 20.6%

**Q.** With CCN1CCN(C(=O)c2ccccc2N(C)S(=O)(=O)c2ccc(C)cc2)CC1 as the compound, how does the inhibition read?
**A.** active: 40.9%

**Q.** Which inhibition does the source give for COCc1cc(C)nc2sc(C(=O)Nc3ccc(OC(F)(F)F)cc3)c(N)c12 here?
**A.** -4.52%

**Q.** For O=C(Nc1ccnn1C1CCN(Cc2ccccc2OC(F)F)CC1)c1cccc(F)c1, which inhibition is on record?
**A.** active: 32.1%

**Q.** Which inhibition does the source give for CN(C)c1ccc(C(=O)N2CCCC(N3CCN(Cc4ccc5c(c4)OCO5)CC3)C2)cc1 (centres undefined) here?
**A.** active: 31.6%

**Q.** For Cc1ccc(C)c(OCCn2cc(C(=O)c3cccs3)c3ccccc32)c1, which inhibition is on record?
**A.** 5.71%

**Q.** How did the inhibition turn out when Cc1cccc(C(=O)N2CCc3cc(CNC(=O)c4ccc(Br)o4)ccc32)c1 was run?
**A.** 11.2%

**Q.** O=[N+]([O-])c1ccc(S(=O)(=O)NCc2nc3cccnc3n2Cc2ccccc2Cl)cc1 was tested. Which inhibition did it give?
**A.** 19.1%

**Q.** How did the inhibition turn out when COc1ccc(OC)c(NC(=O)Cn2c(=O)n(CC3CCCO3)c(=O)c3cc(OC)c(OC)cc32)c1 (centres undefined) was run?
**A.** 11.5%

**Q.** COc1ccc(NC(=O)CN(C)S(=O)(=O)c2ccc3c(c2)CCC(=O)N3)c(OC)c1 was tested. Which inhibition did it give?
**A.** 20.8%

**Q.** For CCOc1ccccc1CNC(=O)CN1C(=O)CSc2ccc(S(=O)(=O)N3CCOCC3)cc21, which inhibition is on record?
**A.** -22.1%

**Q.** For CCN1CCC[C@H]1CNC(=O)c1c(O)c(Cl)cc(Cl)c1OC, which inhibition is on record?
**A.** active: 76%

**Q.** With O=C(c1ccc2c(c1)CCN2S(=O)(=O)c1ccccc1)N1CCN(c2cccc(Cl)c2)CC1 as the compound, how does the inhibition read?
**A.** -11.4%
